Some of the results follow. Further columns of the screen follow, without active or inactive calls. Most of these compounds were active or inconclusive in the main read-out, so they are no random draw.
Test: beta-lactam sensitization of Mtb H37Rv, H37Rv (AID 434955);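 note: growth measured after seven days incubation then overnight dye step; 0% = bacteria only wells and 100% = bacteria with antibiotic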
Details: M. tuberculosis H37Rv growth with meropenem, percent inhibition; measured here: primary screen without meropenem; at 25 µM

| SMILES | inhibition |
| --- | --- |
| Cc1cccc(NC(=O)C2CCN(S(=O)(=O)c3cccs3)CC2)c1 | 5.05% |
| CCCN(CCC)C(=O)Cn1c(=O)c2sccc2n2c(=S)sc(-c3ccccc3)c12 | -0.8% |
| Cn1c(SCC(=O)NCc2cccs2)nnc1-c1ccco1 | 2.61% |
| O=C(Nc1ccc(N2CCCCC2)cc1)c1cc([N+](=O)[O-])cc([N+](=O)[O-])c1 | 15.2% |
| CN(C)CCOC(C1CCCCC1)C1CCCCC1 | 5.75% |
| COc1cccc(/C=N/NC(=O)NC23CC4CC(CC(C4)C2)C3)c1O | 9.73% |
| CC(C)CN(C(=O)COc1ccc(-c2nnco2)cc1)C1CCS(=O)(=O)C1 (stereo not given) | 0.91% |
| Cc1cccc(Nc2nc(N)c(C#N)c(CC#N)c2C#N)c1 | -7.61% |
| CCOC(=O)C(=CNc1ccc(C(F)(F)F)cc1Cl)C(=O)OCC | 7.72% |
| O=C(c1nc2ccc(Cl)cn2c1CN1CCCC(CO)C1)N1CCc2ccccc2C1 (stereo not given) | -1.48% |
| COc1ccccc1-c1nnc(SCC(=O)NC2CCCCC2)o1 | -0.53% |
| Cc1cccc2cc(C(c3nnnn3Cc3ccccc3)N3CCCc4ccccc43)c(=O)[nH]c12 (stereo not given) | 1.04% |
| CCN1CCN(C(=O)C2CCN(Cc3nc(-c4cccc(Cl)c4)oc3C)CC2)CC1 | -0.4% |
| Nc1c(C(=O)c2cccs2)sc2nsc(SCCN3CCCCC3)c12 | 42.9% |
| O=C(Cn1cnc2sc3c(c2c1=O)CCCC3)NCC(=O)Nc1ccccc1F | 6.85% |
| CC1CN(C(=O)CCC(=O)NCc2ccc(Cl)cc2)c2ccccc2S1 (stereo not given) | 0.85% |
| COc1ccc(-n2cnnc2SCC(=O)Nc2cccc(S(=O)(=O)N3CCCCC3)c2)cc1 | -6.25% |
| C=CCSc1nc2c(c(-c3ccsc3)c1C#N)CN(C)CC2 | 35.1% |
| COc1cccc(C(=O)N2C(C(=O)O)CSC2c2ccccc2Cl)c1 (stereo not given) | 0.15% |
| O=NN1CCN(c2ccncc2S(=O)(=O)N2CCCCC2)CC1 | -4.27% |
| Cc1ccc2oc(C(=O)N(C)Cc3cnccn3)c(C)c2c1 | 1.98% |
| O=C(Nc1ccnn1C1CCN(Cc2cccc(OCCO)c2)CC1)c1cccc(F)c1 | 4.21% |
| CCCNC(=O)NCCc1ccncc1 | -3.88% |
| CCCCN(CC)S(=O)(=O)c1ccc(C(=O)Nc2nnc(CSC)o2)cc1 | 35.1% |
| COc1ccc(C2SCC(=O)Nc3c2c(=O)[nH]n3C2CCCCCC2)cc1OC (stereo not given) | 1.23% |
| Cc1cc(C(=O)CSc2nnnn2-c2ccccc2)c(C)n1-c1ccc2c(c1)OCO2 | 25.5% |
| O=C(/C=C/c1ccco1)NC(=S)Nc1ccccn1 | 7.38% |

| SMILES | inhibition |
| --- | --- |
| O=c1oc2ccccc2cc1-c1csc(Cc2nc(-c3ccc(Br)cc3)cs2)n1 | 5.58% |
| CCn1cc(CN2CCC(C(=O)Nc3cccc(-c4cscn4)c3)CC2)cn1 | -6.37% |
| O=S(=O)(Cc1ccccc1)N1CCN(C/C=C/c2ccccc2)CC1 | -0.72% |
| O=C(c1nc2ccc(Cl)cn2c1CNCCc1cnccn1)N1CCCCCCC1 | -15.9% |
| COc1ccc(CN(C)S(=O)(=O)c2ccc3c(c2)OCCO3)cc1 | -3.04% |
| CC1(C(=O)O)CCC(C(=O)Nc2ccccc2O)C1(C)C (stereo not given) | -2.85% |
| COc1cc(CNc2ccccc2SC)ccc1O | -8.95% |
| CCN1CCN(Cc2cc(OC)c(OC)cc2[N+](=O)[O-])CC1 | 3.3% |
| O=C(Nc1ccccc1F)c1oc2ccccc2c1NC(=O)C1CC1 | 5.06% |
| CCOC(=O)c1ccc(N2CCOCC2)c(NC(=O)c2ccc3c(c2)OCO3)c1 | 3.55% |
| CCOC(=O)c1nc(N2CCN(C(=O)OCC)CC2)c2c3c(sc2n1)CCCC3 | 3.3% |
| CCCCc1cc(=O)oc2c(CN(C)C)c(O)c(Cl)cc12 | 1.09% |
| N#Cc1cc2c(nc1SCC(=O)Nc1sc3c(c1C#N)CCC3)CCCC2 | 43.5% |
| COc1ccc(C)cc1NC(=O)CSc1nnc(-c2ccc(OC)c(OC)c2)n1N | -2.82% |
| O=S(=O)(Nc1cccc(-c2ccc(N3CCCCCC3)nn2)c1)c1ccccc1Cl | 30.8% |
| CC1(C)Cc2c(sc(NC(=O)c3ccc(S(=O)(=O)N4CCCCCC4)cc3)c2C#N)C(C)(C)N1 | 9.45% |
| CCn1cc(CN2CCC(C(=O)Nc3cccc(-c4cccc(Cl)c4)c3)CC2)cn1 | 13.6% |
| Cc1ccc(CNc2ncnc3c2cnn3-c2ccccc2)cc1 | -4.07% |
| O=C(NCc1cccs1)c1cc(-c2cccs2)on1 | -1.22% |
| CN(C)c1ccc(-c2nn3c(-c4cccnc4)nnc3s2)cc1 | -3.24% |
| CCc1ccc2nc(N(CCN(C)C)C(=O)/C=C/c3cccs3)sc2c1 | 54.8% |
| Cc1cnc(CN(C)Cc2c(C(=O)N3CCCCCCC3)nc3ccc(Cl)cn23)[nH]1 | 2.21% |
| Cc1cc2[nH]c(=O)c(=O)[nH]c2cc1S(=O)(=O)N(C)C1CCCCC1 | -9.31% |
| COc1ccccc1C(c1c(N)n(C)c(=O)n(C)c1=O)C(C)[N+](=O)[O-] (stereo not given) | 43.9% |
| COCCN1C(=O)c2ccccc2C(C(=O)N2CCN(c3ccccc3)CC2)C1c1ccc(F)cc1 (stereo not given) | -2.38% |
| COC(C(=O)Nc1ccnn1C1CCN(Cc2ccc(CO)o2)CC1)c1ccccc1 (stereo not given) | -16.5% |
| CCn1c(O)c(/C(C)=N/N2CCCCC2c2cccnc2)c(=O)[nH]c1=S (stereo not given) | 5.62% |

| SMILES | inhibition |
| --- | --- |
| O=C(CN1C(=O)c2cccnc2Oc2ccc(Cl)cc21)N1CCOCC1 | 9.43% |
| C/C(=N\O)c1noc(C)c1C(=O)Nc1nccs1 | -2.68% |
| COC(=O)N1CC(c2ccccc2)CC1=O (stereo not given) | 2.76% |
| COc1ccc(CNC(=O)C2CCN(C(=O)c3cccc(Cl)c3)CC2)cc1 | -4.8% |
| COc1ccc(OC)c(NC(=O)c2ccccc2SC)c1 | 29.6% |
| CN(C(=O)c1sc2nc(N3CCCC3)c3c(c2c1N)CC(C)(C)OC3)c1ccccc1 | 4.75% |
| CC(=O)N1Cc2ccccc2C(C)CC12CCCCC2 (stereo not given) | 0.06% |
| Cc1ccc(Nc2nc(-c3ccc(S(=O)(=O)N4CCOCC4)cc3)cs2)cc1 | 4.08% |
| C/C(=N\Nc1ccc([N+](=O)[O-])cc1[N+](=O)[O-])C(C)(C)C(C(=O)O)C(=O)O | 4.21% |
| COc1ccc(C2C3=C(N=C4SCC(=O)N42)c2ccccc2CC3)cc1OC (stereo not given) | -1.14% |
| CN(CC(=O)Nc1ccc(OC(F)(F)F)cc1)C(=O)/C=C/c1cc2c(cc1[N+](=O)[O-])OCO2 | 91.5% |
| CCCCc1nc(SCC(=O)Nc2cccc(Cl)c2)n[nH]1 | -1.35% |
| Cc1ccc(S(=O)(=O)Nc2cc3c(cc2N2CCOCC2)n(C)c(=O)c(=O)n3C)cc1 | -12.4% |
| CC(=O)Nc1ccc(S(=O)(=O)N2CCN(C(=O)C3COc4ccccc4O3)CC2)cc1 (stereo not given) | 3.96% |
| CCCOc1ccccc1NC(=O)/C=C/C(N)=O | 5.62% |
| COC(=O)Sc1nnc(-c2ccc(Br)cc2)o1 | 2.85% |
| O=C(c1cc(COc2ccc(F)cc2Cl)on1)N1CCN(c2cnccn2)CC1 | 53.3% |
| Cc1c(-c2ccc(OCc3ccccc3)cc2)nc2ccccc2c1C(=O)O | 7.79% |
| Cc1ccc(/C=C/C(=O)Nc2cccc(S(=O)(=O)N3CCOCC3)c2)o1 | 0.85% |
| Cc1occc1C(=O)NCc1ccccn1 | 1.51% |
| CCC(=O)NC(c1ccc([N+](=O)[O-])cc1)c1c(O)ccc2ccccc12 (stereo not given) | 0.2% |
| Cc1ccc2c(Cl)cc(Cl)c(OCc3c(C)noc3C)c2n1 | 17.6% |
| CCOC(=O)C1CCN(C(=O)c2cc(COc3ccc(F)cc3F)on2)CC1 | 73.6% |
| Cc1ccccc1Cn1cc(NC(=O)CSc2nc3c(c(C(F)(F)F)n2)CCc2ccccc2-3)cn1 | 9.01% |
| COc1ccc(N(C(=O)c2cccnc2)S(=O)(=O)c2ccc(OC)c(OC)c2)cc1 | -6.99% |
| Cn1ncc(Cl)c1C(=O)N1CCC2(CC1)OCCO2 | 2.29% |
| CCCCOc1cccc(NC(=O)CSc2nncn2C)c1 | 10.4% |

| SMILES | inhibition |
| --- | --- |
| COc1ccc(N2CC(C(=O)Nc3nnc(SCC(=O)NC4CCCC4)s3)CC2=O)cc1 (stereo not given) | 2.27% |
| CC(OC(=O)c1ccc(NC(=O)CC#N)cc1)C(=O)NC(=O)NC1CCCCC1 (stereo not given) | 2.28% |
| CCCC(=O)c1c(NC)cc(C)oc1=O | 4.37% |
| O=C(CSc1nnc2scc(-c3ccccc3)n12)c1ccc2c(c1)OCCO2 | -5.16% |
| Cc1ccc(C(=O)NC2CCCCC2)cc1S(=O)(=O)N1CCCC1 | 18.5% |
| COc1ccc(C(=O)N2CCNC(=O)C2CC(=O)Nc2cccc(Cl)c2Cl)cc1 (stereo not given) | 7.81% |
| CN(C)c1ccc(S(=O)(=O)c2ccc(Cl)cc2)cc1 | 5.97% |
| CN(C(=O)Nc1ccc(Cl)cc1)n1cnc2ccccc2c1=O | 38.9% |
| C/C(=N/NC(=O)c1cccs1)c1c(C)[nH]n(-c2nc3ccccc3s2)c1=O | 50.4% |
| COc1cc(NC(=O)COC(=O)CCOc2ccc(C)cc2)cc(OC)c1 | 6.63% |
| Cn1c(=O)[nH]c(=O)c2c1nc(CN1CCN(c3cccc(Cl)c3)CC1)n2CCc1ccccc1 | -0.59% |
| C=CCc1ccccc1OCC(O)CN1CCN(c2ccc(OC)cc2)CC1 (stereo not given) | 17.9% |
| CSc1nnc(C)c(/C=C/Nc2ccc(Cl)cc2)n1 | -3.63% |
| COc1ccc(NS(=O)(=O)c2ccc(O)c(NC(=O)c3cc4c(C)nn(-c5ccc(F)cc5)c4s3)c2)cc1 | 83.6% |
| Cc1cc(S(=O)(=O)Nc2c(C)ccc3nsnc23)ccc1F | -2.36% |
| CCOc1ccc(NC(=O)CC2C(=O)N(c3ccc(OC)c(Cl)c3)C(=S)N2C2CC2)cc1 (stereo not given) | -1.84% |
| COc1cccc(CNS(=O)(=O)c2c(C)[nH]c(C)c2C(=O)N2CCCC2)c1 | -5.66% |
| Cc1ccc(S(=O)(=O)N(CC(=O)Nc2ccc(Cl)c([N+](=O)[O-])c2)C2CCCCC2)cc1 | 23% |
| Cc1cc(C)cc(N2C(=O)c3nccnc3C2=O)c1 | -7.33% |
| CCCCOc1ccc(C(=O)Nc2ccc(S(=O)(=O)Nc3onc(C)c3C)cc2)cc1 | 5.63% |
| Cc1ccccc1NC(=S)N(CCCN1CCCCC1)Cc1ccco1 | -2.96% |
| COc1ccc(-c2csc3ncnc(N4CCN(c5ccc(OC)cc5)CC4)c23)cc1 | 40.4% |
| CC(C)c1ccc(NC(=O)Cn2ncn3c(cc4ccccc43)c2=O)cc1 | 6.55% |
| CCOC(=O)c1c(C)[nH]c(C(=O)OC(C)C(=O)Nc2ccccc2OC)c1C (stereo not given) | 2.47% |
